This is one part of the list.
How the values were obtained:
Assay in all cases: glycan array binding signal (z-score within array); higher = stronger binding
Settings in all cases: glycan notation: IUPAC condensed, linker removed
Neu5Ac(a2-3)Gal = molecular target: Neu5Ac(a2-3)Gal
Method in brief: (§1)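 Negative Z-scores can be read as non-binding. The Z-score is calculated within each array and then averaged across arrays of one protein sequence at different concentrations or buffers and across linkers. Arrays, 3228 in all, were curated from the Consortium for Functional Glycomics database and kept only where the protein sequence was available.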

[1] = molecular target: Neu5Ac(a2-3)Gal(b1-3)GalNAc
Method in brief: as §1

[2] = molecular target: Neu5Ac(a2-3)Gal(b1-3)GalNAc(b1-3)Gal(a1-4)Gal(b1-4)Glc
Method in brief: as §1

[3] = molecular target: Neu5Ac(a2-3)Gal(b1-3)GalNAc(b1-4)Gal(b1-4)Glc
Method in brief: as §1

[4] = molecular target: Neu5Ac(a2-3)Gal(b1-3)GalNAc(b1-4)[Neu5Ac(a2-3)]Gal(b1-4)Glc
Method in brief: as §1

[5] = molecular target: Neu5Ac(a2-3)Gal(b1-3)GalNAc(b1-4)[Neu5Ac(a2-8)Neu5Ac(a2-3)]Gal(b1-4)Glc
Method in brief: as §1

[6] = molecular target: Neu5Ac(a2-3)Gal(b1-3)GalNAc6S
Method in brief: as §1

[7] = molecular target: Neu5Ac(a2-3)Gal(b1-3)GlcNAc
Method in brief: as §1

[8] = molecular target: Neu5Ac(a2-3)Gal(b1-3)GlcNAc(b1-2)Man
Method in brief: as §1

[9] = molecular target: Neu5Ac(a2-3)Gal(b1-3)GlcNAc(b1-2)Man(a1-3)[GlcNAc(b1-4)][Neu5Ac(a2-3)Gal(b1-3)GlcNAc(b1-2)Man(a1-6)]Man(b1-4)GlcNAc(b1-4)GlcNAc
Method in brief: as §1

[10] = molecular target: Neu5Ac(a2-3)Gal(b1-3)GlcNAc(b1-2)Man(a1-3)[Neu5Ac(a2-3)Gal(b1-3)GlcNAc(b1-2)Man(a1-6)]Man(b1-4)GlcNAc(b1-4)GlcNAc
Method in brief: as §1

[11] = molecular target: Neu5Ac(a2-3)Gal(b1-3)GlcNAc(b1-2)[Neu5Ac(a2-3)Gal(b1-3)GlcNAc(b1-4)]Man(a1-6)[Neu5Ac(a2-3)Gal(b1-3)GlcNAc(b1-2)Man(a1-3)]Man(b1-4)GlcNAc(b1-4)GlcNAc
Method in brief: as §1

[12] = molecular target: Neu5Ac(a2-3)Gal(b1-3)GlcNAc(b1-3)Gal(b1-3)GlcNAc
Method in brief: as §1

[13] = molecular target: Neu5Ac(a2-3)Gal(b1-3)GlcNAc(b1-3)Gal(b1-4)GlcNAc
Method in brief: as §1

[14] = molecular target: Neu5Ac(a2-3)Gal(b1-3)GlcNAc(b1-3)GalNAc
Method in brief: as §1

[15] = molecular target: Neu5Ac(a2-3)Gal(b1-3)GlcNAc(b1-6)GalNAc
Method in brief: as §1

[16] = molecular target: Neu5Ac(a2-3)Gal(b1-3)GlcNAc6S
Method in brief: as §1

[17] = molecular target: Neu5Ac(a2-3)Gal(b1-3)[Fuc(a1-4)]GlcNAc
Method in brief: as §1

[18] = molecular target: Neu5Ac(a2-3)Gal(b1-3)[Fuc(a1-4)]GlcNAc(b1-3)Gal(b1-3)[Fuc(a1-4)]GlcNAc
Method in brief: as §1

[19] = molecular target: Neu5Ac(a2-3)Gal(b1-3)[Fuc(a1-4)]GlcNAc(b1-3)Gal(b1-4)[Fuc(a1-3)]GlcNAc
Method in brief: as §1

[20] = molecular target: Neu5Ac(a2-3)Gal(b1-3)[GlcNAc(b1-6)]GalNAc
Method in brief: as §1

[21] = molecular target: Neu5Ac(a2-3)Gal(b1-3)[Neu5Ac(a2-6)]GalNAc
Method in brief: as §1

[22] = molecular target: Neu5Ac(a2-3)Gal(b1-3)[Neu5Ac(a2-6)]GlcNAc(b1-3)[Fuc(a1-3)[Gal(b1-4)]GlcNAc(b1-6)]Gal(b1-4)Glc
Method in brief: as §1

[23] = molecular target: Neu5Ac(a2-3)Gal(b1-3)]Neu5Ac(a2-3)Gal(b1-4)]GlcNAc
Method in brief: as §1

Neu5Ac(a2-3)Gal(b1-4)Glc = molecular target: Neu5Ac(a2-3)Gal(b1-4)Glc
Method in brief: as §1

[24] = molecular target: Neu5Ac(a2-3)Gal(b1-4)GlcNAc
Method in brief: as §1

[25] = molecular target: Neu5Ac(a2-3)Gal(b1-4)GlcNAc(b1-2)Man
Method in brief: as §1

[26] = molecular target: Neu5Ac(a2-3)Gal(b1-4)GlcNAc(b1-2)Man(a1-3)[GlcNAc(b1-4)][Neu5Ac(a2-3)Gal(b1-4)GlcNAc(b1-2)Man(a1-6)]Man(b1-4)GlcNAc(b1-4)GlcNAc
Method in brief: as §1

[27] = molecular target: Neu5Ac(a2-3)Gal(b1-4)GlcNAc(b1-2)Man(a1-3)[Neu5Ac(a2-3)Gal(b1-4)GlcNAc(b1-2)Man(a1-6)]Man(b1-4)GlcNAc(b1-4)GlcNAc
Method in brief: as §1

[28] = molecular target: Neu5Ac(a2-3)Gal(b1-4)GlcNAc(b1-2)Man(a1-3)[Neu5Ac(a2-3)Gal(b1-4)GlcNAc(b1-2)Man(a1-6)]Man(b1-4)GlcNAc(b1-4)[Fuc(a1-6)]GlcNAc
Method in brief: as §1

[29] = molecular target: Neu5Ac(a2-3)Gal(b1-4)GlcNAc(b1-2)Man(a1-3)[Neu5Ac(a2-6)Gal(b1-4)GlcNAc(b1-2)Man(a1-6)]Man(b1-4)GlcNAc(b1-4)GlcNAc
Method in brief: as §1

[30] = molecular target: Neu5Ac(a2-3)Gal(b1-4)GlcNAc(b1-2)[Neu5Ac(a2-3)Gal(b1-4)GlcNAc(b1-4)]Man(a1-3)[GlcNAc(b1-4)][Neu5Ac(a2-3)Gal(b1-4)GlcNAc(b1-2)[Neu5Ac(a2-3)Gal(b1-4)GlcNAc(b1-6)]Man(a1-6)]Man(b1-4)GlcNAc(b1-4)GlcNAc
Method in brief: as §1

[31] = molecular target: Neu5Ac(a2-3)Gal(b1-4)GlcNAc(b1-2)[Neu5Ac(a2-3)Gal(b1-4)GlcNAc(b1-4)]Man(a1-3)[GlcNAc(b1-4)][Neu5Ac(a2-3)Gal(b1-4)GlcNAc(b1-4)Man(a1-6)]Man(b1-4)GlcNAc(b1-4)GlcNAc
Method in brief: as §1

[32] = molecular target: Neu5Ac(a2-3)Gal(b1-4)GlcNAc(b1-2)[Neu5Ac(a2-3)Gal(b1-4)GlcNAc(b1-6)]Man(a1-6)[Neu5Ac(a2-3)Gal(b1-4)GlcNAc(b1-2)Man(a1-3)][GlcNAc(b1-4)]Man(b1-4)GlcNAc(b1-4)GlcNAc
Method in brief: as §1

[33] = molecular target: Neu5Ac(a2-3)Gal(b1-4)GlcNAc(b1-3)Gal
Method in brief: as §1

[34] = molecular target: Neu5Ac(a2-3)Gal(b1-4)GlcNAc(b1-3)Gal(b1-3)GlcNAc
Method in brief: as §1

[35] = molecular target: Neu5Ac(a2-3)Gal(b1-4)GlcNAc(b1-3)Gal(b1-4)GlcNAc
Method in brief: as §1

B1: DC-ASGPR Long (Homo sapiens) (protein)
chain: MTRTYENFQYLENKVKVQGFKNGPLPLQSLLQRLRSGPCHLLLSLGLGLLLLVIICVVGFQNSKFQRDLVTLRTDFSNFTSNTVAEIQALTSQGSSLEETIASLKAEVEGFKQERQAGVSELQEHTTQKAHLGHCPHCPSVCVPVHSEMLLRVQQLVQDLKKLTCQVATLNNNASTEGTCCPVNWVEHQDSCYWFSHSGMSWAEAEKYCQLKNAHLVVINSREEQNFVQKYLGSAYTWMGLSDPEGAWKWVDGTDYATGFQNWKPGQPDDWQGHGLGGGEDCAHFHPDGGWNDDVCQRPYHWVCEAGLGQTSQESH
glycan array binding signal (z-score) (Neu5Ac(a2-3)Gal): -0.419 | glycan array binding signal (z-score) [1]: -0.272 | glycan array binding signal (z-score) [2]: -0.363 | glycan array binding signal (z-score) [3]: -0.405 | glycan array binding signal (z-score) [4]: -0.274 | glycan array binding signal (z-score) [5]: -0.225 | glycan array binding signal (z-score) [6]: -0.137 | glycan array binding signal (z-score) [7]: -0.361 | glycan array binding signal (z-score) [8]: -0.505 | glycan array binding signal (z-score) [9]: 0.1 | glycan array binding signal (z-score) [10]: 0.516 | glycan array binding signal (z-score) [11]: 0.483 | glycan array binding signal (z-score) [12]: -0.601 | glycan array binding signal (z-score) [13]: -0.511 | glycan array binding signal (z-score) [14]: 0.133 | glycan array binding signal (z-score) [15]: 4.59 | glycan array binding signal (z-score) [16]: -0.256 | glycan array binding signal (z-score) [17]: 0.116 | glycan array binding signal (z-score) [18]: -0.273 | glycan array binding signal (z-score) [19]: -0.162 | glycan array binding signal (z-score) [20]: -0.325 | glycan array binding signal (z-score) [21]: 0.59 | glycan array binding signal (z-score) [22]: -0.251 | glycan array binding signal (z-score) [23]: -0.176 | glycan array binding signal (z-score) (Neu5Ac(a2-3)Gal(b1-4)Glc): -0.302 | glycan array binding signal (z-score) [24]: -0.21 | glycan array binding signal (z-score) [25]: -0.097 | glycan array binding signal (z-score) [26]: -0.066 | glycan array binding signal (z-score) [27]: -0.251 | glycan array binding signal (z-score) [28]: -0.062 | glycan array binding signal (z-score) [29]: -0.355 | glycan array binding signal (z-score) [30]: -0.053 | glycan array binding signal (z-score) [31]: -0.084 | glycan array binding signal (z-score) [32]: -0.537 | glycan array binding signal (z-score) [33]: -0.443 | glycan array binding signal (z-score) [34]: -0.025 | glycan array binding signal (z-score) [35]: -0.227

Source: the supplement of paper PMC8728848
